# By IC50 is meant the dose at which the fit gives 50% viability; a fit beyond the top or the lowest dose is shown as a bound at that dose. The AUC spans the tested range (256-fold, ending at the top dose) of the same fit; values near 1 show little effect. For some of these results: Any top dose called inferred was derived from the fitted curves, not read from the paper.
# Assays:
# Experiment in all cases: Viability of human cancer cell lines after 72 h of drug (GDSC screen)
# [1] = compound: CCc1cc(-c2n[nH]c(C)c2-c2ccc3c(c2)OCCO3)c(O)cc1O [CCT018159]; conditions: top dose 10 µM; top dose inferred
# Method: (§1)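 Human cancer cell lines in 384-well plates, medium with 10% serum, drug for 72 h over a 256-fold dose range (nine 2-fold or five 4-fold steps up to the top dose). Adherent lines were fixed and stained with the nucleic acid dye Syto60, suspension lines read with resazurin; signal relative to control wells, capped at 0 and 100%. One two-parameter sigmoid per drug and line, fitted in a mixed model over all curves with the slope shared within a line.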
# [2] = compound: Cc1cnc(Nc2ccc(F)cc2Cl)nc1-c1c[nH]c(C(=O)N[C@H](CO)c2cccc(Cl)c2)c1 [VX-11e]; conditions: top dose 5.12 µM; top dose inferred
# Method: as §1
# [3] = compound: C=CC(=O)Nc1cc(-n2c(=O)ccc3cnc4ccc(-c5ccc(NS(C)(=O)=O)cc5)cc4c32)ccc1C [BMX-IN-1 (QL-XII-61)]; conditions: top dose 10 µM; top dose inferred
# Method: as §1
# [4] = compound: Cc1cnc(Nc2ccc(OCCN3CCCC3)cc2)nc1Nc1cccc(S(=O)(=O)NC(C)(C)C)c1 [TG101348]; conditions: top dose 10.24 µM
# Method: as §1
# [5] = compound: COC(=O)CNC(=O)C(=O)OC [Dimethyloxalylglycine]; conditions: top dose 4000 µM; top dose inferred
# Method: as §1
# [6] = compound: C=CCNC1=C2C[C@@H](C)C[C@H](OC)[C@H](O)[C@@H](C)/C=C(\C)[C@H](OC(N)=O)[C@@H](OC)/C=C\C=C(/C)C(=O)NC(=CC1=O)C2=O [17-AAG]; conditions: top dose 1 µM
# Method: as §1
# [7] = compound: CS(=O)(=O)c1ccc(C(=O)Nc2ccc(Cl)c(-c3ccccn3)c2)c(Cl)c1 [Vismodegib]; conditions: top dose 10 µM; top dose inferred
# Method: as §1
# [8] = compound: CN(C)Cc1cccc(N=C(c2ccccc2)c2c(O)[nH]c3cc(C(=O)N(C)C)ccc23)c1 [BIX02189]; conditions: top dose 20 µM; top dose inferred
# Method: as §1
# [9] = compound: COc1cccc2c1C(=O)c1c(O)c3c(c(O)c1C2=O)C[C@@](O)(C(=O)CO)C[C@@H]3O[C@H]1C[C@H](N)[C@H](O)[C@H](C)O1 [Doxorubicin]; conditions: top dose 1.024 µM
# Method: as §1
# [10] = compound: COc1cccc2cc(-c3nc([C@H]4CC[C@H](C(=O)O)CC4)n4ncnc(N)c34)[nH]c12 [OSI-027]; conditions: top dose 20 µM
# Method: as §1
# [11] = compound: O=C(c1ccc(C(=O)N2CCC(N3CCCC3)CC2)c(Nc2ccccc2)c1)N1CCC(N2CCCC2)CC1 [UNC1215]; conditions: top dose 1 µM; top dose inferred
# Method: as §1
Cell Line,AUC [1],IC50 [1],AUC [2],IC50 [2],AUC [3],IC50 [3],AUC [4],IC50 [4],AUC [5],IC50 [5],AUC [6],IC50 [6],AUC [7],IC50 [7],AUC [8],IC50 [8],AUC [9],IC50 [9],AUC [10],IC50 [10],AUC [11],IC50 [11]
"RERF-LC-MS (lung adenocarcinoma, adherent)",0.837,6.93 µM,0.963,> 5.12 µM,0.97,> 10 µM,0.948,> 10.2 µM,0.746,1300 µM,0.827,0.633 µM,0.987,> 10 µM,0.957,> 20 µM,0.784,0.448 µM,0.88,> 20 µM,0.985,> 1 µM
"NCI-H810 (large cell lung carcinoma, adherent)",0.852,7.24 µM,0.962,> 5.12 µM,0.884,> 10 µM,0.726,2.71 µM,0.628,553 µM,0.935,> 1 µM,0.975,> 10 µM,0.944,> 20 µM,0.3,0.018 µM,0.344,0.47 µM,0.984,> 1 µM
"NUGC-4 (stomach, adherent)",0.981,> 10 µM,0.929,> 5.12 µM,0.874,9.76 µM,0.883,> 10.2 µM,0.79,1790 µM,0.726,0.274 µM,0.988,> 10 µM,0.875,19.6 µM,0.616,0.133 µM,0.953,> 20 µM,0.973,> 1 µM
"GI-ME-N (neuroblastoma, adherent)",0.832,9.99 µM,0.862,> 5.12 µM,0.756,4.58 µM,0.634,1.72 µM,0.724,1390 µM,0.837,> 1 µM,0.976,> 10 µM,0.737,7.79 µM,0.529,0.0789 µM,0.345,0.395 µM,0.968,> 1 µM
"KU-19-19 (bladder, adherent)",0.803,4.96 µM,0.609,0.638 µM,0.98,> 10 µM,0.964,> 10.2 µM,0.716,,0.961,> 1 µM,0.967,> 10 µM,0.987,> 20 µM,0.911,> 1.02 µM,0.898,> 20 µM,0.986,> 1 µM
"Daudi (Burkitt lymphoma, suspension)",0.904,> 10 µM,0.972,> 5.12 µM,0.86,6.72 µM,0.741,2.8 µM,0.295,72.4 µM,0.983,> 1 µM,0.989,> 10 µM,0.892,18.3 µM,0.505,0.0659 µM,0.095,< 0.0781 µM,0.988,> 1 µM
"JURL-MK1 (chronic myeloid leukaemia, suspension)",0.894,> 10 µM,0.541,0.414 µM,0.973,> 10 µM,0.722,2.71 µM,0.73,1120 µM,0.792,0.449 µM,0.934,> 10 µM,0.726,5.46 µM,0.639,0.155 µM,0.356,0.501 µM,0.979,> 1 µM
"SK-MES-1 (lung squamous cell carcinoma, adherent)",0.894,> 10 µM,0.951,> 5.12 µM,0.959,> 10 µM,0.699,2.45 µM,0.459,191 µM,0.435,0.0408 µM,0.976,> 10 µM,0.971,> 20 µM,0.404,0.0341 µM,0.481,1.1 µM,0.983,> 1 µM
"TT (thyroid, adherent)",0.918,> 10 µM,0.973,> 5.12 µM,0.967,> 10 µM,0.859,> 10.2 µM,0.594,500 µM,0.97,> 1 µM,0.983,> 10 µM,0.978,> 20 µM,0.956,> 1.02 µM,0.957,> 20 µM,0.973,> 1 µM
"HCC1419 (breast, adherent)",0.969,> 10 µM,0.979,> 5.12 µM,0.967,> 10 µM,0.942,> 10.2 µM,0.877,> 4000 µM,0.654,0.201 µM,0.959,> 10 µM,0.965,> 20 µM,0.814,0.881 µM,0.596,2.56 µM,0.98,> 1 µM
"OCI-LY-19 (B-cell lymphoma, suspension)",0.914,> 10 µM,0.762,1.69 µM,0.877,8.66 µM,0.414,0.379 µM,0.429,162 µM,0.96,> 1 µM,0.985,> 10 µM,0.606,2.38 µM,0.159,0.00649 µM,0.059,< 0.0781 µM,0.987,> 1 µM

# Reference: the supplement of paper PMC4967469
